The list shows a part of the results.
B1: PhoQ; a variant is named by its letters at X, in order, P23837 (parent)
chain: MKKLLRLFFPLSLRVRFLLATAAVVLVLSLAYGMVALIGYSVSFDKTTFRLLRGESNLFYTLAKWENNKLHVELPENIDKQSPTMTLIYDENGQLLWAQRDVPWLMKMIQPDWLKSNGFHEIEADVNDTSLLLSGDHSIQQQLQEVREDDDDAEMTHSVAVNVYPATSRMPKLTIVVVDTIPVELKSSYMVWSWFIYVLSANLLLVIPLLWVAAWWSLRPIEALAKEVRELEEHNRELLNPATTRELTSLVRNLNRLLKSERERYDKYRTTLTDLTHSLKTPLXXLQXXLRSLRSEKMSVSDAEPVMLEQISRISQQIGYYLHRASMRGGTLLSRELHPVAPLLDNLTSALNKVYQRKGVNISLDISPEISFVGEQNDFVEVMGNVLDNACKYCLEFVEISARQTDEHLYIVVEDDGPGIPLSKREVIFDRGQRVDTLRPGQGVGLAVAREITEQYEGKIVAGESMLGGARMEVIFGRQHSAPKDE

Variants of: B1
Assay: enrichment ratio after two sorts for PhoP signalling (ratio (wild type AVST 3.29)); higher = more functional
Conditions: with PhoP (E. coli)

Row | Variant | enrichment ratio
1 | NPCF | ≤ 0.25
2 | HDWM | ≤ 0.25
3 | VYNI | ≤ 0.25
4 | QGYK | 0.706
5 | YAPC | ≤ 0.25
6 | TCFG | ≤ 0.25
7 | GAHP | ≤ 0.25
8 | DIEC | ≤ 0.25
9 | LRCA | ≤ 0.25
10 | IPTV | ≤ 0.25
11 | GGCR | ≤ 0.25
12 | YRQM | ≤ 0.25
13 | KGYM | ≤ 0.25
14 | TREC | ≤ 0.25
15 | ENLK | ≤ 0.25
16 | FQPA | ≤ 0.25
17 | TKGA | ≤ 0.25
18 | TQIQ | 9.56
19 | WLFM | ≤ 0.25
20 | TQIL | 7.66
21 | KDYA | ≤ 0.25

Row | Variant | enrichment ratio
22 | KQRD | ≤ 0.25
23 | TEDD | ≤ 0.25
24 | QIYN | 20.5
25 | YAIE | ≤ 0.25
26 | ANVL | 13.9
27 | HTLC | ≤ 0.25
28 | MHPG | ≤ 0.25
29 | SFKG | ≤ 0.25
30 | RQIQ | ≤ 0.25
31 | LQSF | ≤ 0.25
32 | PNFQ | ≤ 0.25
33 | PAQT | ≤ 0.25
34 | IRNH | ≤ 0.25
35 | IEAG | ≤ 0.25
36 | GLCA | ≤ 0.25
37 | WYCL | ≤ 0.25
38 | LETD | ≤ 0.25
39 | KIMD | ≤ 0.25
40 | INKY | ≤ 0.25
41 | ILST | ≤ 0.25
42 | LDAF | ≤ 0.25

Row | Variant | enrichment ratio
43 | KYHN | ≤ 0.25
44 | QRPY | ≤ 0.25
45 | ELDD | ≤ 0.25
46 | KLGT | ≤ 0.25
47 | IATP | ≤ 0.25
48 | KVPA | ≤ 0.25
49 | WSGT | ≤ 0.25
50 | LMQP | ≤ 0.25
51 | CLNF | ≤ 0.25
52 | LPKC | ≤ 0.25
53 | DILL | ≤ 0.25
54 | HWWL | ≤ 0.25
55 | RNRI | ≤ 0.25
56 | DWVC | ≤ 0.25
57 | FGLS | 8.38
58 | IFDW | ≤ 0.25
59 | VLPF | ≤ 0.25
60 | QAYW | 2.38
61 | AMPG | ≤ 0.25
62 | TRRG | ≤ 0.25
63 | WCDK | ≤ 0.25

Row | Variant | enrichment ratio
64 | SKNK | ≤ 0.25
65 | KRFT | ≤ 0.25
66 | HKHK | ≤ 0.25
67 | ALVH | 0.867
68 | WHKL | ≤ 0.25
69 | KVAS | ≤ 0.25
70 | PASE | ≤ 0.25
71 | WLSF | ≤ 0.25
72 | ARDR | ≤ 0.25
73 | YEFL | ≤ 0.25
74 | KKYD | ≤ 0.25
75 | YQLA | ≤ 0.25
76 | MPCD | ≤ 0.25
77 | WIMR | ≤ 0.25
78 | FQAY | ≤ 0.25
79 | MMAC | 3.29
80 | KDTF | ≤ 0.25
81 | YAEH | ≤ 0.25
82 | DRCM | ≤ 0.25
83 | VMFI | ≤ 0.25
84 | LLCY | ≤ 0.25

Reference: a collection of fitness landscapes (doi:10.1126/science.1257360)
